This is one part of the list.
How the values were obtained:
Experiment in all cases: glycan array binding signal (z-score within array); higher = stronger binding
Details in all cases: glycan notation: IUPAC condensed, linker removed
[1] = target: Gal(b1-3)[Fuc(a1-4)]GlcNAc(b1-3)Gal(b1-4)[Fuc(a1-3)]GlcNAc
In short: (§1)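 Glycan array data came from 3228 arrays in the Consortium for Functional Glycomics database, and only arrays with an available protein sequence were kept. Glycan names were put into IUPAC-condensed notation, and columns mapping to the same glycan were averaged. The binding signal is a within-array Z-score, averaged across arrays of one protein sequence run at different concentrations or buffers and across linkers. A negative Z-score can be read as non-binding.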

[2] = target: Gal(b1-3)[GlcNAc(b1-6)]GalNAc
In short: as §1

[3] = target: Gal(b1-3)[Neu5Ac(a2-6)]GalNAc
In short: as §1

[4] = target: Gal(b1-3)[Neu5Ac(a2-6)]GlcNAc(b1-6)Gal(b1-4)Glc
In short: as §1

[5] = target: Gal(b1-3)[Neu5Ac(b2-6)]GalNAc
In short: as §1

[6] = target: Gal(b1-4)GalNAc(a1-3)[Fuc(a1-2)]Gal(b1-4)GlcNAc
In short: as §1

[7] = target: Gal(b1-4)GalNAc(b1-3)[Fuc(a1-2)]Gal(b1-4)GlcNAc
In short: as §1

[8] = target: Gal(b1-4)Glc
In short: as §1

[9] = target: Gal(b1-4)Glc6S
In short: as §1

[10] = target: Gal(b1-4)GlcNAc
In short: as §1

[11] = target: Gal(b1-4)GlcNAc(a1-6)Gal(b1-4)GlcNAc
In short: as §1

[12] = target: Gal(b1-4)GlcNAc(b1-2)Man(a1-3)[Gal(b1-4)GlcNAc(b1-2)Man(a1-6)]Man(b1-4)GlcNAc(b1-4)GlcNAc
In short: as §1

[13] = target: Gal(b1-4)GlcNAc(b1-3)Gal(b1-3)GlcNAc
In short: as §1

[14] = target: Gal(b1-4)GlcNAc(b1-3)Gal(b1-4)Glc
In short: as §1

[15] = target: Gal(b1-4)GlcNAc(b1-3)Gal(b1-4)GlcNAc
In short: as §1

[16] = target: Gal(b1-4)GlcNAc(b1-3)Gal(b1-4)GlcNAc(b1-3)Gal(b1-4)GlcNAc
In short: as §1

[17] = target: Gal(b1-4)GlcNAc(b1-3)Gal(b1-4)[Fuc(a1-3)]GlcNAc(b1-3)Gal(b1-4)[Fuc(a1-3)]GlcNAc
In short: as §1

[18] = target: Gal(b1-4)GlcNAc(b1-3)GalNAc
In short: as §1

[19] = target: Gal(b1-4)GlcNAc(b1-3)[Gal(b1-4)GlcNAc(b1-6)]Gal(b1-4)GlcNAc
In short: as §1

[20] = target: Gal(b1-4)GlcNAc(b1-3)[GlcNAc(b1-6)]Gal(b1-4)GlcNAc
In short: as §1

[21] = target: Gal(b1-4)GlcNAc(b1-6)Gal(b1-4)GlcNAc
In short: as §1

[22] = target: Gal(b1-4)GlcNAc(b1-6)Gal(b1-4)GlcNAc(b1-6)GalNAc
In short: as §1

[23] = target: Gal(b1-4)GlcNAc(b1-6)GalNAc
In short: as §1

[24] = target: Gal(b1-4)GlcNAc(b1-6)[Gal(b1-3)]GalNAc
In short: as §1

[25] = target: Gal3S(b1-3)GalNAc
In short: as §1

[26] = target: Gal3S(b1-3)GlcNAc
In short: as §1

[27] = target: Gal3S(b1-3)[Fuc(a1-4)]GlcNAc
In short: as §1

[28] = target: Gal3S(b1-4)Glc
In short: as §1

[29] = target: Gal3S(b1-4)Glc6S
In short: as §1

[30] = target: Gal3S(b1-4)GlcNAc
In short: as §1

[31] = target: Gal3S(b1-4)GlcNAc6S
In short: as §1

[32] = target: Gal3S(b1-4)[Fuc(a1-3)]Glc
In short: as §1

[33] = target: Gal3S4S(b1-4)GlcNAc
In short: as §1

[34] = target: Gal3S6S(b1-4)GlcNAc
In short: as §1

[35] = target: Gal3S6S(b1-4)GlcNAc6S
In short: as §1

[36] = target: Gal4S(b1-4)GlcNAc
In short: as §1

[37] = target: Gal4S6S(b1-4)GlcNAc
In short: as §1

[38] = target: Gal6S(b1-4)Glc
In short: as §1

[39] = target: Gal6S(b1-4)Glc6S
In short: as §1

[40] = target: Gal6S(b1-4)GlcNAc
In short: as §1

[41] = target: Gal6S(b1-4)GlcNAc6S
In short: as §1

[42] = target: GalNAc(a1-3)Gal
In short: as §1

[43] = target: GalNAc(a1-3)GalNAc
In short: as §1

[44] = target: GalNAc(b1-3)Gal
In short: as §1

[45] = target: GalNAc(b1-3)Gal(a1-4)Gal(b1-4)GlcNAc
In short: as §1

[46] = target: GalNAc(b1-3)GalNAc
In short: as §1

[47] = target: GalNAc(b1-4)GlcNAc
In short: as §1

[48] = target: Glc(a1-4)Glc
In short: as §1

[49] = target: Glc(a1-6)Glc(a1-6)Glc
In short: as §1

[50] = target: Glc(b1-4)Glc
In short: as §1

[51] = target: Glc(b1-6)Glc
In short: as §1

[52] = target: GlcA(b1-3)Gal
In short: as §1

[53] = target: GlcA(b1-3)GlcNAc
In short: as §1

[54] = target: GlcA(b1-6)Gal
In short: as §1

[55] = target: GlcNAc(a1-3)Gal(b1-4)GlcNAc
In short: as §1

[56] = target: GlcNAc(a1-6)Gal(b1-4)GlcNAc
In short: as §1

[57] = target: GlcNAc(b1-2)Gal(b1-3)GalNAc
In short: as §1

[58] = target: GlcNAc(b1-2)Man(a1-3)[GlcNAc(b1-2)Man(a1-6)]Man(b1-4)GlcNAc(b1-4)GlcNAc
In short: as §1

[59] = target: GlcNAc(b1-3)Gal
In short: as §1

[60] = target: GlcNAc(b1-3)Gal(b1-3)GalNAc
In short: as §1

[61] = target: GlcNAc(b1-3)Gal(b1-4)Glc
In short: as §1

[62] = target: GlcNAc(b1-3)Gal(b1-4)GlcNAc
In short: as §1

[63] = target: GlcNAc(b1-3)Gal(b1-4)GlcNAc(b1-3)Gal(b1-4)GlcNAc
In short: as §1

[64] = target: GlcNAc(b1-3)GalNAc
In short: as §1

[65] = target: GlcNAc(b1-3)Man
In short: as §1

[66] = target: GlcNAc(b1-3)[GlcNAc(b1-4)][GlcNAc(b1-6)]GlcNAc
In short: as §1

[67] = target: GlcNAc(b1-3)[GlcNAc(b1-6)]Gal(b1-4)GlcNAc
In short: as §1

[68] = target: GlcNAc(b1-3)[GlcNAc(b1-6)]GalNAc
In short: as §1

[69] = target: GlcNAc(b1-4)Gal(b1-4)GlcNAc
In short: as §1

[70] = target: GlcNAc(b1-4)GlcNAc
In short: as §1

[71] = target: GlcNAc(b1-4)GlcNAc(b1-4)GlcNAc
In short: as §1

[72] = target: GlcNAc(b1-4)GlcNAc(b1-4)GlcNAc(b1-4)GlcNAc(b1-4)GlcNAc
In short: as §1

[73] = target: GlcNAc(b1-4)GlcNAc(b1-4)GlcNAc(b1-4)GlcNAc(b1-4)GlcNAc(b1-4)GlcNAc
In short: as §1

[74] = target: GlcNAc(b1-4)[GlcNAc(b1-6)]GalNAc
In short: as §1

[75] = target: GlcNAc(b1-6)Gal(b1-4)GlcNAc
In short: as §1

B1: Codakine (Codakia orbicularis), Q3KVL7_9BIVA (protein)
chain: MKILVAVFLVLVVVGTAAAGCPDGWTQFLDLCYIYQSAKASWASAQSSCQALGGILAEPDTACENEVLIHMCRENGDAGSFGPWLGGQKVGGAWQWSSSGAAFDYLRWGPNEPNNSGGNEDCLHYNWLSWNDLRCHYQASYLCQRAAE
glycan array binding signal (z-score) [1]: 0.044
glycan array binding signal (z-score) [2]: -0.251
glycan array binding signal (z-score) [3]: -0.307
glycan array binding signal (z-score) [4]: -0.307
glycan array binding signal (z-score) [5]: -0.245
glycan array binding signal (z-score) [6]: -0.419
glycan array binding signal (z-score) [7]: -0.318
glycan array binding signal (z-score) [8]: -0.285
glycan array binding signal (z-score) [9]: -0.273
glycan array binding signal (z-score) [10]: -0.3
glycan array binding signal (z-score) [11]: -0.239
glycan array binding signal (z-score) [12]: 4.02
glycan array binding signal (z-score) [13]: -0.239
glycan array binding signal (z-score) [14]: -0.283
glycan array binding signal (z-score) [15]: -0.271
glycan array binding signal (z-score) [16]: -0.271
glycan array binding signal (z-score) [17]: -0.218
glycan array binding signal (z-score) [18]: -0.375
glycan array binding signal (z-score) [19]: -0.357
glycan array binding signal (z-score) [20]: -0.221
glycan array binding signal (z-score) [21]: -0.245
glycan array binding signal (z-score) [22]: -0.242
glycan array binding signal (z-score) [23]: -0.33
glycan array binding signal (z-score) [24]: -0.328
glycan array binding signal (z-score) [25]: -0.314
glycan array binding signal (z-score) [26]: -0.077
glycan array binding signal (z-score) [27]: -0.195
glycan array binding signal (z-score) [28]: -0.212
glycan array binding signal (z-score) [29]: 0.241
glycan array binding signal (z-score) [30]: -0.186
glycan array binding signal (z-score) [31]: -0.049
glycan array binding signal (z-score) [32]: -0.177
glycan array binding signal (z-score) [33]: -0.091
glycan array binding signal (z-score) [34]: -0.214
glycan array binding signal (z-score) [35]: 0.22
glycan array binding signal (z-score) [36]: -0.155
glycan array binding signal (z-score) [37]: -0.177
glycan array binding signal (z-score) [38]: -0.229
glycan array binding signal (z-score) [39]: 0.037
glycan array binding signal (z-score) [40]: -0.136
glycan array binding signal (z-score) [41]: 0.016
glycan array binding signal (z-score) [42]: -0.32
glycan array binding signal (z-score) [43]: -0.347
glycan array binding signal (z-score) [44]: -0.313
glycan array binding signal (z-score) [45]: -0.372
glycan array binding signal (z-score) [46]: -0.34
glycan array binding signal (z-score) [47]: -0.32
glycan array binding signal (z-score) [48]: -0.306
glycan array binding signal (z-score) [49]: -0.317
glycan array binding signal (z-score) [50]: -0.419
glycan array binding signal (z-score) [51]: -0.182
glycan array binding signal (z-score) [52]: -0.231
glycan array binding signal (z-score) [53]: -0.159
glycan array binding signal (z-score) [54]: -0.302
glycan array binding signal (z-score) [55]: -0.437
glycan array binding signal (z-score) [56]: -0.28
glycan array binding signal (z-score) [57]: -0.276
glycan array binding signal (z-score) [58]: 2.79
glycan array binding signal (z-score) [59]: -0.293
glycan array binding signal (z-score) [60]: -0.195
glycan array binding signal (z-score) [61]: -0.148
glycan array binding signal (z-score) [62]: -0.291
glycan array binding signal (z-score) [63]: -0.251
glycan array binding signal (z-score) [64]: -0.349
glycan array binding signal (z-score) [65]: -0.214
glycan array binding signal (z-score) [66]: -0.28
glycan array binding signal (z-score) [67]: -0.263
glycan array binding signal (z-score) [68]: -0.291
glycan array binding signal (z-score) [69]: -0.3
glycan array binding signal (z-score) [70]: -0.313
glycan array binding signal (z-score) [71]: -0.231
glycan array binding signal (z-score) [72]: -0.244
glycan array binding signal (z-score) [73]: -0.341
glycan array binding signal (z-score) [74]: -0.163
glycan array binding signal (z-score) [75]: -0.232

— the supplement of paper PMC8728848
